Among all 52,000 compounds or so, about 1,700 (3.3%) were called active. Cut-off read from the data, not from the text of the source: active = survival mostly below about 52% (no sharp cut-off); inactive = mostly above about 56%. The list shows a part of the results.

This test deals with Wild type. Nature of the test: growth inhibition of S. aureus wild type versus tarO mutant, primary screen, teichoic acid synthesis inhibitors, RN4220, OD600 (AID 463173). To be noted: S. aureus RN4220 wild type/DeltatarO growth, OD600, 18 h, active compounds read low, screened at 18.75 µg/mL (by protocol).
For the compound `O=C1CSC2(C(=O)N(Cc3ccccc3F)c3ccccc32)N1c1cccc(C(F)(F)F)c1` (stereo not given), the survival is inactive: 85%.
As to `O=C(Cn1ncc2c3ccccc3n(Cc3ccc(Cl)cc3)c2c1=O)NCCC1=CCCCC1`, the survival was inactive: 88%.
`CN(C)CCNC(=O)C1CCN(c2ncnc3c2nc2n3CCCCC2)CC1`: the survival was inactive: 135%.
Consider `Cc1ccc(NC(=O)CSc2nnc(-c3nnn(-c4ccc(F)cc4)c3C)o2)cc1Br`, for which the survival is inactive: 70%.
On to `COc1ccc(CNC(=O)c2cc3cc4ccc(C)cc4nc3o2)cc1`, for which the survival was inactive: 88%.
Turning to `O=C(Cc1ccccc1)Nc1c(C(=O)c2ccccc2)oc2ccccc12`, the survival is active: 7%.
Under `Cc1nc(-c2cccc(F)c2)sc1CCNC(=O)c1c(F)cccc1Cl` stands inactive: 94%; under `O=C(/C=C/c1ccccc1)C1=C(O)C(=O)N(CCO)C1c1ccc(F)cc1` (stereo not given), inactive: 106%; under `COc1cccc(N2CCN(C(=O)c3cc4c(s3)-c3c(C)cccc3OC4)CC2)c1`, inactive: 70%.
Under `CCCCn1c(=NC(=O)C(C)(C)Oc2ccc(Cl)cc2)c(C(=O)OCC)cc2c(=O)n3ccccc3nc21` stands inactive: 88%; under `Cc1ccc(NC(=O)CN2C(=O)COc3ccc(S(=O)(=O)N4CCCCCC4)cc32)cc1Cl`, inactive: 77%; under `Cc1ccc(OCC(=O)Nc2nonc2-c2ccc(C)c(C)c2)cc1C`, inactive: 65%.
The result for `CC1CCCN(CCCNC(=O)c2ccc3c(c2)N(Cc2cccc(Cl)c2)C(=O)c2ccccc2S3(=O)=O)C1` (stereo not given) reads inactive: 99%.
With `CC(C)Cc1nn2c(=O)cc(COC(=O)CNC(=O)c3ccc(C(C)(C)C)cc3)nc2s1`, the survival was inactive: 153%.
Under `Cc1ccc(C)c(CNC(=O)c2ccc3c(c2)nc2n3CCOC2)c1` stands inactive: 63%; under `COc1ccccc1C(=O)Nc1cccc(C(=O)OCc2cc(=O)n3nc(C4CC4)sc3n2)c1`, inactive: 76%.
The result for `O=C(Nc1ccc(OC(F)(F)F)cc1)C(Cc1ccccc1)NS(=O)(=O)c1cccc2nsnc12` (stereo not given) reads inactive: 68%.
The result for `Cc1ccc2c(NC(=O)C3CC3)cccc2n1` reads inactive: 99%.
For the compound `COC(=O)c1ccc(C2c3c(oc4ccc(C)cc4c3=O)C(=O)N2Cc2ccc3c(c2)OCO3)cc1` (stereo not given), the survival was inactive: 85%.
`O=C(O)C1CC2C=CC1O2` (stereo not given): the survival was inactive: 112%.
On to `COc1cccc(CNC(=O)Cn2ccc3cc(S(=O)(=O)N4CCCC4)ccc32)c1OC`, for which the survival was inactive: 78%.
The result for `Cc1ccc(S(=O)(=O)c2nnn3c2nc(NCc2ccc4c(c2)OCO4)c2sccc23)cc1` reads inactive: 110%; that for `CCOC(=O)c1c(Nc2ccc(O)cc2)nnc(-c2ccccc2)c1-c1ccccc1`, inactive: 96%; that for `O=C(c1ccccc1)N1CCc2ccccc21`, inactive: 106%.
Under `O=C(O)c1ccccc1C(=O)N1CCC(C(=O)c2ccccc2)CC1` stands inactive: 104%; under `CCC1Oc2ccc(C)cc2N(CC(=O)NCCc2ccccc2)C1=O` (stereo not given), inactive: 59%; under `CCOC(=O)c1cnc2ccc(OC(F)(F)F)cc2c1Nc1ccccc1C(=O)O`, inactive: 52%.
Consider `COc1cccc(/C=C/c2nc(C#N)c(N3CCCCCC3)o2)c1`, for which the survival is inactive: 76%.
For the compound `Cc1ccc(NC(=O)CCCN2C(=O)COc3ccc(C)cc32)c(Cl)c1`, the survival is inactive: 107%.
On to `NCCCc1nc2ccccc2[nH]1`, for which the survival is inactive: 100%.
Regarding `Cc1cc(C)n(CC(=O)Nc2nc(-c3ccccc3)cs2)n1`, the survival was inactive: 110%.
Take `CCOC(=O)c1cnn2c(C(F)(F)F)cc(-c3ccc(Br)cc3)nc12`: the survival is inactive: 74%.
For the compound `COc1ccc(-c2cnc(C)o2)cc1S(=O)(=O)Nc1cccc(C(F)(F)F)c1`, the survival is inactive: 77%.
The result for `O=C(Nc1cccc(C(F)(F)F)c1)C1CCN(S(=O)(=O)c2cccc3nsnc23)CC1` reads inactive: 88%; that for `COC(=O)Cc1c(C)c2ccc3c(c2oc1=O)CN(Cc1ccc(C)cc1)CO3`, inactive: 118%.
Under `Cc1ccccc1-c1noc(CSc2nc(-c3ccc(F)cc3)cc(=O)[nH]2)n1` stands active: 10%; under `COc1ccc(-n2nnnc2SCC(=O)NCCc2ccccc2)cc1`, inactive: 55%.
The result for `Cc1sc2ncn3ncnc3c2c1C` reads inactive: 98%.
In the case of `O=C(Nc1ccc(OCc2cc(=O)n3c4c(sc3n2)CCCC4)cc1)c1ccc(F)cc1`, the survival was inactive: 85%.
Under `CCOc1ccc(CCNC(=O)CCn2c(=O)c3cccn3c3ccc(F)cc32)cc1` stands inactive: 71%; under `O=C(O)CC1=C(c2ccc(F)cc2)CCC1=O`, inactive: 108%; under `Cc1ccc(NC(=O)Cn2nc(C(F)(F)F)c3c2CCC3)cc1C`, inactive: 81%.
Turning to `CC(C)COc1ccc(C(=O)Nc2onc3c2CCCC3)cc1`, the survival is inactive: 115%.
The result for `NC(=O)C1CCN(c2ncnc3c2cnn3-c2cccc(Cl)c2)CC1` reads inactive: 79%; that for `CCc1ccccc1NS(=O)(=O)c1ccc2[nH]cc(C(=O)NC3CCCC3)c(=O)c2c1`, inactive: 42%.
The result for `COc1ccc(-c2noc(-c3ccc(NCc4ccco4)c([N+](=O)[O-])c3)n2)cc1OC` reads inactive: 63%.
For `Cc1cccc(CNC(=O)CCCN2C(=O)c3cccnc3Oc3ccccc32)c1`, the survival is inactive: 74%.
In the case of `CCOc1ccc(C(=O)NCCc2sc(-c3cccc(F)c3)nc2C)cc1OCC`, the survival is inactive: 71%.
Under `CCc1ccc(N2CC(c3nc4ccccc4n3Cc3ccccc3C)CC2=O)cc1` (stereo not given) stands inactive: 53%; under `Cc1ccc(C2=NN(CCC(=O)NCCc3cccc(C)c3)C(=O)CC2)cc1`, inactive: 120%.
Regarding `COc1ccc(Cn2c(NCC(C)C)nc3c2c(=O)n(C)c(=O)n3C)cc1`, the survival is inactive: 69%.
The result for `CN(C(=O)CSc1nc2ccc(NC(=O)c3ccccc3)cc2s1)c1ccccc1` reads inactive: 77%; that for `O=C(CSc1oc(-c2cccs2)nc1S(=O)(=O)c1ccccc1)Nc1ccc(F)cc1`, inactive: 70%; that for `CC(=O)Nc1cccc(-c2nnc(SCC(=O)c3ccc([N+](=O)[O-])cc3)o2)c1`, inactive: 123%.
The result for `CCC1CCCCN1C(=O)COc1ccc(F)cc1` (stereo not given) reads inactive: 113%; that for `COc1ccc(OC)c(CNC(=O)c2cnc(N(C)C)nc2)c1`, inactive: 74%.
The result for `Cc1ccc(-n2nc(C)c3c(C(=O)Nc4ccc(C)cc4Cl)cc(C)nc32)cc1` reads inactive: 45%; that for `COc1cc(CN(C(=O)c2ccc(C)cc2)c2ccccn2)cc(OC)c1OC`, inactive: 83%; that for `CCOC(=O)CSc1nc(-c2ccc(OC)cc2)cc(C(F)(F)F)c1C#N`, inactive: 85%.
For `COc1ccc(C(=O)CC2(O)C(=O)N(CCc3ccccc3)c3ccc(Br)cc32)cc1OC` (stereo not given), the survival is inactive: 65%.
The result for `CCOC(=O)c1ccc2c(c1)C(=O)N(c1ccccc1OC)C2=O` reads inactive: 87%.
In the case of `COc1cccc(-n2c(=O)c3c4c(sc3n(Cc3ccccc3C#N)c2=O)CCCC4)c1`, the survival is inactive: 80%.
Take `Cc1ccccc1-c1noc(-c2ccc(NC3CCCC3)c([N+](=O)[O-])c2)n1`: the survival was inactive: 97%.
The result for `O=C(Cn1nc2c(cc1=O)CCCC2)NCc1ccccc1` reads inactive: 79%; that for `COc1ccc(-n2nc(C(=O)N3CCN(c4cccc(C)c4)C(C)C3)c3c4ccccc4n(C)c3c2=O)cc1Cl` (stereo not given), inactive: 87%; that for `O=S(=O)(c1ccc2nc(Nc3ccc(Br)cc3F)ccc2c1)N1CCCC1`, inactive: 128%.
Under `CCOc1ccc(OCC)c(NS(=O)(=O)c2ccc3c(c2)CCCN3C(C)=O)c1` stands inactive: 89%; under `CCc1nnc(NC(=O)c2nc(SCc3ccc(F)cc3)ncc2Cl)s1`, inactive: 58%; under `CCC(c1nnnn1CC1CCCO1)N(Cc1ccc2c(c1)OCO2)Cc1cc2cc(C)cc(C)c2[nH]c1=O` (stereo not given), inactive: 107%.
For `O=C(OCC1CCCO1)c1ccc2c(c1)N(Cc1c(F)cccc1Cl)C(=O)c1ccccc1S2(=O)=O` (stereo not given), the survival was inactive: 73%.
As for `CCCCn1c(C2CC(=O)N(c3ccc(OCC)cc3)C2)nc2ccccc21` (stereo not given), the survival was inactive: 84%.
Regarding `COCC(C)NC(=O)C1=CC(c2ccc3c(c2)OCO3)=NS(=O)(=O)N1C` (stereo not given), the survival is inactive: 103%.
With `CCOCCn1c(=NC(=O)c2ccc3c(c2)OCCO3)sc2cc(OCC)ccc21`, the survival is inactive: 92%.
Regarding `Cc1cc(C)c(NC(=O)c2ccc3nc(C(C)C)oc3c2)c(C)c1`, the survival is inactive: 110%.
The result for `O=C(Cn1cc(SCc2ccc(F)cc2)c2ccccc21)N1CCCC1` reads inactive: 71%; that for `CCN(CC)S(=O)(=O)c1ccc2c(c1)c(=O)c(C(=O)N1CCN(c3cc(C)ccc3C)CC1)cn2C`, inactive: 82%.
Under `CCC(C(=O)NC1CCCCC1)n1nc(C)c2sc3ccccc3c2c1=O` (stereo not given) stands inactive: 85%.
`COc1ccc(S(=O)(=O)N2CCC(c3nnnn3-c3ccccc3)CC2)cc1OC`: the survival is inactive: 88%.
For the compound `Cc1ccc(Cl)cc1N1CCN(C(=O)c2cnc3c(-c4ccc(F)cc4)c(C)nn3c2C)CC1`, the survival was inactive: 69%.
`O=C(Nc1ccccc1C(F)(F)F)C1CCN(c2nnc(-n3cccc3)s2)CC1`: the survival was inactive: 113%.
Take `CSc1ccc(-c2nc3cc(C)ccn3c2Nc2ccc(C)cc2)cc1`: the survival was inactive: 87%.
The result for `Cc1cccc(-c2nc(S(=O)(=O)c3ccccc3)c(N3CCN(c4ccccc4)CC3)o2)c1` reads inactive: 114%.
Under `CCc1ccc(NC(=O)C(=O)NCCc2sc(-c3ccc(C)cc3)nc2C)cc1` stands inactive: 55%; under `O=C(CSc1nc2c(c(=O)[nH]1)CCC2)Nc1cc(C(F)(F)F)ccc1Cl`, inactive: 85%.
As for `NNc1nc2ccccc2c(=O)n1Cc1ccccc1`, the survival was inactive: 107%.
The result for `COc1ccc(NCc2cccn2-c2nnc(N3CCC(C)CC3)s2)c(OC)c1` reads inactive: 89%; that for `Cn1ccc2c(OCC(=O)NCc3ccc(F)cc3)cccc2c1=O`, inactive: 63%.
Under `NC(=O)C1CCN(c2nc(C3CC3)nc3c2nnn3Cc2ccccc2Cl)CC1` stands inactive: 108%; under `CCOC(=O)c1cc(S(=O)(=O)Nc2cc(C)c(Cl)cc2OC)[nH]n1`, inactive: 98%.
Take `COc1c(Cl)cc(Cl)cc1C(=O)Nc1cccc2cccnc12`: the survival is inactive: 143%.

These data come from PubChem BioAssay AID463173 (ICCB-Longwood Screening Facility, Harvard Medical School, 2010).
